{
  "source": "paper PMC4336329",
  "about": "(PLoS ONE, 2015)",
  "note": "Screen size: about 310,000 compounds; about 14,000 (4.5%) showed an effect of 50% or more. The effect is printed as a negative number. This is one part of the list.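 Note: peak tail current of the secondary pulse compared with the same well before compound.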",
  "data": [
    {"target": "human ether-à-go-go-related gene (hERG) potassium channel (human, UniProt Q12809)", "sequence (Q12809 whole entry, looked up)": "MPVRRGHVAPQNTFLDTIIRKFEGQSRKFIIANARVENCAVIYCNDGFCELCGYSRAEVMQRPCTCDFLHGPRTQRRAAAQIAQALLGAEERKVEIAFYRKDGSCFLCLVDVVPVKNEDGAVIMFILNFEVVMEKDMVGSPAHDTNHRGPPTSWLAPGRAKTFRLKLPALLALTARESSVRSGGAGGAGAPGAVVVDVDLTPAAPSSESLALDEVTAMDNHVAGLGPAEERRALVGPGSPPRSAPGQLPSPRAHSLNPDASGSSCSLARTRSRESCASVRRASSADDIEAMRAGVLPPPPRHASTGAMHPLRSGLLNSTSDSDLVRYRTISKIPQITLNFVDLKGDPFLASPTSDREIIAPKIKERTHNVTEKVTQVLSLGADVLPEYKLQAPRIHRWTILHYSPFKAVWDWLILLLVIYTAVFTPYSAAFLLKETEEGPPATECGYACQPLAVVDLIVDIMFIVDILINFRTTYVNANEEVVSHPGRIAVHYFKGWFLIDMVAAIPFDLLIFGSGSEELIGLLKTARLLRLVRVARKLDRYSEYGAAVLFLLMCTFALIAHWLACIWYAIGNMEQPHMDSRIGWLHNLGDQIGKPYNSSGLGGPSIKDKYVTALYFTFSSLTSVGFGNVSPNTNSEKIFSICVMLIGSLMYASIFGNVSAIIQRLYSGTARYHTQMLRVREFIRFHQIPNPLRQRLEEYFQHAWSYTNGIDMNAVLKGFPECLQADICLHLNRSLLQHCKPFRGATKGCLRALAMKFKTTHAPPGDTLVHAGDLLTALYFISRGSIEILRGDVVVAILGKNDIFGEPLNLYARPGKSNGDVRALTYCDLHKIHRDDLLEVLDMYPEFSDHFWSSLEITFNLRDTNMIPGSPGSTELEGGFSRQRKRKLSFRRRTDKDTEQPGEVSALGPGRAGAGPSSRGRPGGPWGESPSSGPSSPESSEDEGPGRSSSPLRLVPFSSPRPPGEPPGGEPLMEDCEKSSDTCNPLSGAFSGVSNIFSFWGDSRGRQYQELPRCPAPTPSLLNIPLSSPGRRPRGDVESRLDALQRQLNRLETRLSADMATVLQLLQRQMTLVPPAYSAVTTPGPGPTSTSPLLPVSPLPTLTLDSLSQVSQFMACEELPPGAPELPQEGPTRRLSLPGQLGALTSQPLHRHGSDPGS", "assay": "primary screen, population patch clamp on CHO cells stably expressing hERG", "units": {"hERG current change (%, negative = inhibition) at 10uM": "%"}, "values": [
      {"smiles": "CCCCn1c(N)c(N(CCOC)C(=O)CC(NC(=O)c2ccccc2)c2ccccc2)c(=O)[nH]c1=O", "note": "(centres unmarked)", "hERG current change (%, negative = inhibition) at 10uM": -24.6},
      {"smiles": "COc1cc2c(cc1OC)C(C)N(C(=O)c1cccs1)CC2", "note": "(centres unmarked)", "hERG current change (%, negative = inhibition) at 10uM": -4.17},
      {"smiles": "Cc1ccc(S(=O)(=O)N2CCN(C(=O)CSc3nnc(C)s3)C2)cc1", "hERG current change (%, negative = inhibition) at 10uM": 10},
      {"smiles": "Nc1nc(N)nc(-c2cccc(Cl)c2)n1", "hERG current change (%, negative = inhibition) at 10uM": 1.8},
      {"smiles": "Cc1nc2c3ccccc3[nH]c(=O)n2n1", "hERG current change (%, negative = inhibition) at 10uM": -5.96},
      {"smiles": "CNc1nc(C)c(C(C)(C)C)s1", "hERG current change (%, negative = inhibition) at 10uM": 14.3},
      {"smiles": "CCOc1cccc(-c2nnc3sc(COc4ccccc4)nn23)c1", "hERG current change (%, negative = inhibition) at 10uM": -12.2},
      {"smiles": "CC(=O)N1CCN(C(=S)NCCc2ccccc2)CC1", "hERG current change (%, negative = inhibition) at 10uM": -4.66},
      {"smiles": "COc1ccc(CC(=O)Nc2nnc(SCc3ccccc3)s2)cc1S(=O)(=O)N1CCOCC1", "hERG current change (%, negative = inhibition) at 10uM": -10.8},
      {"smiles": "Cc1ccc2c(Cl)cc(Cl)c(OCc3c(C)noc3C)c2n1", "hERG current change (%, negative = inhibition) at 10uM": 8.92},
      {"smiles": "FC(F)(F)c1ccc(Cl)c(NC(=S)N/N=C/c2ccccc2C(F)(F)F)c1", "hERG current change (%, negative = inhibition) at 10uM": 20.2},
      {"smiles": "Cc1ccc(C(=O)C(C)OC(=O)Cc2n[nH]c(=O)c3ccccc23)cc1C", "note": "(centres unmarked)", "hERG current change (%, negative = inhibition) at 10uM": -15.6},
      {"smiles": "CCOc1ccc(S(=O)(=O)Nc2cccc(C(=O)N3CCN(c4ccccc4O)CC3)c2)cc1", "hERG current change (%, negative = inhibition) at 10uM": 3.16},
      {"smiles": "CCN1CCN(CCC(=O)Nc2ccc(F)c(F)c2)CC1", "hERG current change (%, negative = inhibition) at 10uM": -17.1},
      {"smiles": "O=C(NCc1ccccc1)c1cc(-c2cccc(O)c2)on1", "hERG current change (%, negative = inhibition) at 10uM": 1.09},
      {"smiles": "O=C1Nc2ccccc2C1(O)Cc1ccncc1", "note": "(centres unmarked)", "hERG current change (%, negative = inhibition) at 10uM": 2.55},
      {"smiles": "Cc1cccc(NCCC(=O)c2ccc(Br)cc2)c1", "hERG current change (%, negative = inhibition) at 10uM": 2.95},
      {"smiles": "CC(C)Cn1nc(NC(=O)C2CCCO2)c2cc3ccccc3nc21", "note": "(centres unmarked)", "hERG current change (%, negative = inhibition) at 10uM": -14},
      {"smiles": "CN(c1ccccc1)S(=O)(=O)c1ccc(Cl)c(C(=O)NCc2ccccc2CN2CCCC2)c1", "hERG current change (%, negative = inhibition) at 10uM": -65.9},
      {"smiles": "COc1ccc(-c2cc(C(=O)N3CCN(c4ccccc4O)CC3)c3ccccc3n2)cc1OC", "hERG current change (%, negative = inhibition) at 10uM": -40.7},
      {"smiles": "Cc1cccc(-n2cnc(C(=O)N3CCN(C)CC3)c2)n1", "hERG current change (%, negative = inhibition) at 10uM": 24.1},
      {"smiles": "CCCOc1ccc(C2c3c(oc4ccccc4c3=O)C(=O)N2CCCN2CCOCC2)cc1", "note": "(centres unmarked)", "hERG current change (%, negative = inhibition) at 10uM": -6.76},
      {"smiles": "CCOc1ccccc1OCC(=O)OCc1csc(CC(=O)Nc2ccccc2C)n1", "hERG current change (%, negative = inhibition) at 10uM": -15.2},
      {"smiles": "COc1ccc(N2C(=O)C(CC(=O)Nc3ccc(F)cc3)N(CCc3ccc(OC)c(OC)c3)C2=O)cc1", "note": "(centres unmarked)", "hERG current change (%, negative = inhibition) at 10uM": -32.9},
      {"smiles": "COc1ccc(CNC(=S)Nc2ccccc2C)cc1", "hERG current change (%, negative = inhibition) at 10uM": 3.03},
      {"smiles": "CCC(=O)Nc1cc(C)c(NC(=O)c2ccccc2OC)cn1", "hERG current change (%, negative = inhibition) at 10uM": 15.9},
      {"smiles": "CCOC(=O)Cn1c(=O)oc2cc(S(=O)(=O)Nc3c(C)cc(C)cc3C)ccc21", "hERG current change (%, negative = inhibition) at 10uM": -4.78},
      {"smiles": "CC1(C)C[C@H](O)[C@]2(CO)CC[C@]3(C)C(=CCC4[C@@]5(C)CC[C@H](O)C(C)(C)C5CC[C@]43C)[C@@H]2C1", "note": "(some centres unmarked)", "hERG current change (%, negative = inhibition) at 10uM": -13.9},
      {"smiles": "O=C(COC(=O)CC1CC2CCC1C2)Nc1ccc(F)cc1", "note": "(centres unmarked)", "hERG current change (%, negative = inhibition) at 10uM": -22.4},
      {"smiles": "CCOC(=O)C(C)Sc1nnc(Cc2cc(=O)[nH]c(=O)[nH]2)n1-c1cccc(OC)c1", "note": "(centres unmarked)", "hERG current change (%, negative = inhibition) at 10uM": 0.328},
      {"smiles": "CCOC(=O)c1cccc(NC(=O)c2cc(C)nn2-c2ccccc2)c1", "hERG current change (%, negative = inhibition) at 10uM": -50.5},
      {"smiles": "O=C(Nc1cccc([N+](=O)[O-])c1)C1CC(=O)N(C2CCCCC2)C1", "note": "(centres unmarked)", "hERG current change (%, negative = inhibition) at 10uM": -45.4},
      {"smiles": "CCCn1c(C(O)c2cc(OC)c(OC)c(OC)c2)nc2ccccc21", "note": "(centres unmarked)", "hERG current change (%, negative = inhibition) at 10uM": 8.16},
      {"smiles": "CS(=O)(=O)N(CC(=O)N1CCN(Cc2ccccc2)CC1)c1ccccc1Br", "hERG current change (%, negative = inhibition) at 10uM": 6.95},
      {"smiles": "Cc1ccc2c(c1)C1CN(C)CCC1N2C(=O)c1cccc(S(=O)(=O)N2CC(C)CC(C)C2)c1.Cl", "note": "(centres unmarked)", "hERG current change (%, negative = inhibition) at 10uM": -44.8},
      {"smiles": "CCOC(=O)c1cnc2c(cnn2C)c1NCCC(O)C(F)(F)F", "note": "(centres unmarked)", "hERG current change (%, negative = inhibition) at 10uM": 0.469},
      {"smiles": "O=C(Nc1ccccc1N1CCCC1)c1ccc(N2CCCC2=O)cc1", "hERG current change (%, negative = inhibition) at 10uM": -22.1},
      {"smiles": "CC(C)c1ccc(NC(=O)c2sccc2-n2cccc2)cc1", "hERG current change (%, negative = inhibition) at 10uM": 7.16},
      {"smiles": "COc1ccc(NC(=O)c2cccs2)cc1O", "hERG current change (%, negative = inhibition) at 10uM": -5.28},
      {"smiles": "COc1ccc(Cn2c(-c3ccc(C)cc3)c[n+]3ccccc23)cc1.[Br-]", "hERG current change (%, negative = inhibition) at 10uM": -33.4},
      {"smiles": "COCCNC(=S)Nc1ccc2nc(N3CCN(C)CC3)cc(C)c2c1", "hERG current change (%, negative = inhibition) at 10uM": 8.03},
      {"smiles": "COc1ccccc1CN1CC(C(=O)NCc2cc(C(C)C)no2)CCC1=O", "note": "(centres unmarked)", "hERG current change (%, negative = inhibition) at 10uM": 21},
      {"smiles": "CCOP(=O)(CC(C(C)=O)C(O)c1ccccc1)OCC", "note": "(centres unmarked)", "hERG current change (%, negative = inhibition) at 10uM": 11.3},
      {"smiles": "COc1ccc(NC(=O)CSc2nccn2Cc2ccco2)cc1", "hERG current change (%, negative = inhibition) at 10uM": 8.27},
      {"smiles": "CC1(C)CC2(CCO1)OC(=O)CC2C(=O)NCc1ccccc1", "note": "(centres unmarked)", "hERG current change (%, negative = inhibition) at 10uM": -9.54},
      {"smiles": "Cc1ccc(CNC(=O)COc2ccc(S(=O)(=O)N3CCOCC3)cc2)cc1", "hERG current change (%, negative = inhibition) at 10uM": 6.34},
      {"smiles": "O=C(Nc1nnc(C2=COCCO2)o1)c1cccc(Br)c1", "hERG current change (%, negative = inhibition) at 10uM": 13.6},
      {"smiles": "Nc1cc(C2CCCC2)nn1-c1ccccc1", "hERG current change (%, negative = inhibition) at 10uM": -0.945},
      {"smiles": "COc1ccccc1N=C1SCC(=O)N1Cc1ccco1", "hERG current change (%, negative = inhibition) at 10uM": 9.34},
      {"smiles": "Cc1ccc2nc(-c3ccncc3)cc(-c3ccccc3)c2c1", "hERG current change (%, negative = inhibition) at 10uM": -10.3},
      {"smiles": "CCOC(=O)C1(Cc2cccc(Cl)c2)CCCN(C2CCN(C(C)=O)CC2)C1", "note": "(centres unmarked)", "hERG current change (%, negative = inhibition) at 10uM": 5.28},
      {"smiles": "Cc1cc(C)c2cc3c(N)c(C(=O)N4CCOCC4)sc3nc2c1", "hERG current change (%, negative = inhibition) at 10uM": 23.9},
      {"smiles": "Cc1ccc(C(=O)/C=C/Nc2cccc(O)c2)cc1", "hERG current change (%, negative = inhibition) at 10uM": -7.14},
      {"smiles": "COC(=O)c1ccc(CNS(=O)(=O)c2ccc3ccccc3c2)cc1", "hERG current change (%, negative = inhibition) at 10uM": 2.29},
      {"smiles": "O=S(=O)(N[C@H]1C[C@@H](NS(=O)(=O)OCC(Cl)(Cl)Cl)C2CCCCC21)OCC(Cl)(Cl)Cl", "note": "(some centres unmarked)", "hERG current change (%, negative = inhibition) at 10uM": 12.6},
      {"smiles": "CN(C1CCCCC1)S(=O)(=O)c1ccc(NC(=O)Cn2nc(-c3ccc(F)cc3)ccc2=O)cc1", "hERG current change (%, negative = inhibition) at 10uM": -9.76}
    ]}
  ]
}
